Laboratory results reported in PubChem BioAssay AID1434 (Sanford-Burnham Center for Chemical Genomics, 2008).
This is one part of the list. These are further read-outs of the screen, such as a control signal, another cell line or another target. No call is given for them. Compounds called inactive in the main read-out are mostly missing here.

Molecular target: Runt-related transcription factor 1 (Homo sapiens) + Core-binding factor subunit beta (Homo sapiens) (UniProt Q01196+Q13951)
Assay: inhibitors of RUNX1 Runt–CBFb-SMMHC binding, primary screen, biochemical, FRET, Cerulean-Runt, Venus-CBFb-SMMHC, uHTS (AID 1434);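 further: 0% = DMSO wells and 100% = wells with excess untagged CBFb-SMMHC; inhibitors lower the FRET ratio by blocking Runt binding to CBFb-SMMHC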
Conditions: Cerulean-Runt/Venus-CBFb-SMMHC FRET ratio 530/480, 1 h; retest duplicate average; at 20 µM; stronger effect = higher value

Sequence of UniProt Q01196 (Q01196 whole entry, looked up): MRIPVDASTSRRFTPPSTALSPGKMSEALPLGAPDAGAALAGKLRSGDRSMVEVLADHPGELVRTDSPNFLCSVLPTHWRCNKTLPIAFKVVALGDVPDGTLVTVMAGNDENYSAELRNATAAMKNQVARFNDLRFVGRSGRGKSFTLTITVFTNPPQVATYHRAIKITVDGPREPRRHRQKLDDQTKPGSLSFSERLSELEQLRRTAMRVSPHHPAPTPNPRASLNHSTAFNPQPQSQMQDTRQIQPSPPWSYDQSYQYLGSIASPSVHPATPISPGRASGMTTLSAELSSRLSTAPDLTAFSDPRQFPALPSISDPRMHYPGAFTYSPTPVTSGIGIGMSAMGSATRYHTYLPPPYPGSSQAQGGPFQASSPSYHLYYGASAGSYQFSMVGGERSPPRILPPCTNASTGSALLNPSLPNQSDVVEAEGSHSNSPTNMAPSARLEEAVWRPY
Sequence of UniProt Q01196 (Q13951 whole entry, looked up): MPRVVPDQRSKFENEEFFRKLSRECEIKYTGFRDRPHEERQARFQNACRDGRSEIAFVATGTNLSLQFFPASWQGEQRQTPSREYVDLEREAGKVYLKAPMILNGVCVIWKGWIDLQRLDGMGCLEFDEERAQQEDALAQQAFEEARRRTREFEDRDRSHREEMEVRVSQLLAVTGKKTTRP

Row | SMILES | inhibition
1 | Cc1ccccc1-n1c(=O)c(C#N)cc2c(=O)n3ccccc3nc21 | 72.9%
2 | N#Cc1cc2cc3c(cc2nc1NCCNC(=S)NCCCN1CCOCC1)OCO3 | 126%
3 | COCCn1c(N)c(C(=O)OCc2ccccc2)c2nc3ccccc3nc21 | 82.8%
4 | CCOC(=O)c1cc2c(=O)n3cccc(C)c3nc2n(Cc2ccccc2Cl)c1=N | 83%
5 | Cc1ccc(/C=C2\Oc3c(ccc(O)c3CN3CCN(CCO)CC3)C2=O)cc1 | 70.6%
6 | COc1ccc(C2=CC(c3ccco3)n3ncnc3N2)cc1 (centres undefined) | 52.7%
7 | CCCCn1c(=O)nc2n(-c3ccccc3C)c3ccccc3cc-2c1=O | 71.5%
8 | Nc1c(C(=O)NCc2ccc(F)cc2)c2nc3ccccc3nc2n1CCCN1CCOCC1 | 114%
9 | CC(=O)N=c1c(C#N)cc2c(=O)n3cccc(C)c3nc2n1Cc1ccco1 | 70.6%
10 | Cc1ccc(Oc2nc3c(C)cccn3c(=O)c2/C=C(\C#N)C(N)=O)cc1 | 175%
11 | COc1cc(C(=O)Nc2sc3c(c2C#N)CCN(C(C)=O)C3)cc(OC)c1OC | 76.3%
12 | COc1ccccc1CCn1c(N)c(C#N)c2nc3ccccc3nc21 | 156%
13 | CCOC(=O)c1cc2c(=O)n3cccc(C)c3nc2n(Cc2ccco2)c1=NC(=O)c1cccnc1 | 102%
14 | CC(=O)c1sc2nc(C)cc(C)c2c1N | 69%
15 | CCN(CC)c1ccc2c(c1)oc(=O)c1c(Cl)cc(=O)oc12 | 72.9%
16 | CCCc1nc2c(=O)n(C)c(=O)[nH]c2n1C | 179%
17 | CCn1c2ccccc2c2c3ncc4cccn4c3ccc21 | 61.4%
18 | N#Cc1c(N)n(CCNC(=O)c2cccs2)c2nc3ccccc3nc12 | 115%
19 | COc1ccc(OC)c(C2CC(=O)N3CN(c4ccccc4)CSC3=C2C#N)c1 (centres undefined) | 85.4%
20 | COc1ccc(C2C3=C(CC(C)(C)CC3=O)N(C)C3=C2C(=O)CC(C)(C)C3)cc1 | 70.6%
21 | CC(C)OC(=O)CC(=O)CSc1nc2c(cc1C#N)CCCCCC2 | 84.4%
22 | CCCOC(=O)C1=C(C)NC2=C(C(=O)CC(C)(C)C2)C1c1cccnc1 (centres undefined) | 126%

Row | SMILES | inhibition
23 | Cc1ccc(S(=O)(=O)c2cc3c(=O)n4cc(C)ccc4nc3n(CC3CCCO3)c2=N)cc1 (centres undefined) | 146%
24 | CCOc1ccc2nc(NCCNC(=S)NCCCN(C)C)c(C#N)cc2c1 | 70.6%
25 | Cc1cccc(/C=C(\C(=O)C(=O)O)c2ccc3ccccc3n2)c1 | 83.7%
26 | CCOC(=O)c1c(NC(=S)Nc2ccc(Cl)cc2)sc2c1CCN(C)C2 | 166%
27 | CCN1CCc2c(sc(NC(=O)Nc3ccc(Cl)c(Cl)c3)c2C(N)=O)C1 | 71.5%
28 | Cc1ccc(NC(=O)Cn2sc3nc(C)cc(C)c3c2=O)c(Cl)c1 | 52.4%
29 | CC(C)C(=O)N(c1ccc2oc(=O)sc2c1)S(=O)(=O)c1ccccc1 | 61.9%
30 | Cc1c(C=O)c2ccccn2c1C(=O)c1cccs1 | 90.1%
31 | CCOC(=O)c1sc(Nc2nc3ccc(OC)cc3s2)cc1C | 78.8%
32 | O=C(O)c1c2c(nc3ccccc13)/C(=C/c1ccc(O)cc1)CC2 | 70.6%
33 | COC(=O)c1ccc(C(=O)OC)c(NC(=O)Oc2ccccc2)c1 | 121%
34 | CCOC(=O)c1cc2c(=O)n3ccccc3nc2n(Cc2ccco2)c1=NC(=O)c1cccc(OC)c1 | 73.5%
35 | Oc1c(C=NCc2ccccc2)sc2ccccc12 | 67.9%
36 | COCCn1c(-c2cccs2)nc2nc3ccccc3nc21 | 101%
37 | Cc1cccn2c(=O)c3cc(S(=O)(=O)c4ccc(F)cc4)c(=N)n(Cc4ccco4)c3nc12 | 70.6%
38 | CC(C)(C)C(=O)Oc1ccc2cc(-c3ccc4ccccc4n3)c(=O)oc2c1 | 71.5%
39 | Cc1ncc(CO)c(/C=N/NC(=O)c2ccccc2Br)c1O | 71.5%
40 | Cc1nnc(SCc2cc(=O)oc3cc(O)ccc23)n1Cc1ccccc1 | 126%
41 | O=CN/C=C/c1cc(O)ccc1O | 55.8%
42 | Cc1cccc2cc(C#N)c(NCCNC(=S)NCCCN3CCOCC3)nc12 | 74.6%
43 | OCCCc1nc2n(n1)C(c1ccccc1Cl)C=C(c1cccs1)N2 (centres undefined) | 71.5%
44 | CCN(CC)c1ccc2cc(NC(=O)CCC(=O)O)c(=O)oc2c1 | 71.5%

Row | SMILES | inhibition
45 | COC(=O)c1ccc(C(=O)OC)c(NC(=S)N2CCCCC2C)c1 (centres undefined) | 82.1%
46 | Cc1ccc(C)c2nc(N3CCCC3)c(C#N)cc12 | 101%
47 | CN(/N=C/c1cc(Cl)cc(Cl)c1O)C(=S)NC(C)(C)C | 70.6%
48 | COc1cccc(CN2C(=O)c3cccc(N)c3C2=O)c1 | 71.5%
49 | CC1=CC2=NC(=O)/C(=C\c3cn(C)c4ccccc34)C(=N)N2O1 | 70.6%
50 | N#CC(C#N)=C1C=C2C=C(N3CCCCC3)CCC2CC1 (centres undefined) | 71.5%
51 | COc1cccc(/C(O)=C2/C(=O)C(=O)N(c3cc(C)on3)C2c2cccs2)c1 (centres undefined) | 119%
52 | COc1cc(OC)c2c(=O)c(OC)c(-c3ccc(OC)c(OC)c3)oc2c1 | 52.3%
53 | CC(=O)Nc1c(S(=O)(=O)c2ccccc2)c2nc3ccccc3nc2n1Cc1ccccc1 | 72.1%
54 | N#CC1=C(N)N2C(=C(C#N)C1c1cccc(Br)c1)Nc1ccccc12 (centres undefined) | 71.5%
55 | COC(=O)c1cc(=O)n2c(sc3ccccc32)c1C#N | 127%
56 | CCc1cc2c3c(c(=O)oc2cc1O)CCCC3 | 169%
57 | O=C1CCNc2cc3ccccc3cc21 | 91.1%
58 | Cc1nc2[nH]c(=O)c3c(n2n1)NC1=C(C(=O)CC(C)(C)C1)C3c1ccccc1 (centres undefined) | 150%
59 | Cc1cc(C)cc(Oc2nc3c(C)cccn3c(=O)c2/C=C(\C#N)C(=O)NC2CCS(=O)(=O)C2)c1 (centres undefined) | 71.5%
60 | O=[N+]([O-])c1ccc(N=Cc2sc3ccccc3c2O)cc1 | 79.4%
61 | COc1cc(N2C(=O)C=CC2=O)c(OC)cc1Cl | 67%
62 | Cc1cc(=O)oc2c(CN(CC(C)C)CC(C)C)c(O)ccc12 | 92.5%
63 | CC(=O)c1c(N2CCN(Cc3ccccc3)CC2)nc(=S)n(Cc2ccccc2)c1C | 118%
64 | CN1CCc2c(sc3c2C(=O)NC(c2ccccc2)N3)C1 (centres undefined) | 71.5%
65 | CCOC(=O)C1=C(O)/C(=C/c2cn(CC(=O)N3CCCC3)c3ccccc23)SC1=Nc1ccccc1 | 70.9%
66 | O=C(NCc1ccccn1)c1cc2c(ccc3ccccc32)oc1=O | 161%

Row | SMILES | inhibition
67 | Oc1c(C=Nc2cccnc2)sc2ccccc12 | 66.5%
68 | Cc1cc(C)cc(N=Cc2c(O)c3ccccc3oc2=O)c1 | 70.6%
69 | CN1/C(=C\C(=O)c2cccnc2)Sc2ccccc21 | 59.1%
70 | COCCCn1c(=NC(=O)c2ccncc2)c(C#N)cc2c(=O)n3cccc(C)c3nc21 | 72.9%
71 | COc1c2ccoc2c(OC[C@@H](O)C(C)(C)OC)c2oc(=O)ccc12 | 75.1%
72 | CCN(CC)CCCC(C)Nc1c2ccc(Cl)cc2nc2ccc(OC)cc12 (centres undefined) | 70.6%
73 | CCOC(=O)C1=C(C)N=C2SC=C(C)N2C1c1ccc(OC)cc1 (centres undefined) | 68.1%
74 | O=c1c2ccccc2[nH]c2ccc(F)cc12 | 70.6%
75 | Cc1cc(-c2nc3cccnc3s2)ccc1NS(=O)(=O)c1ccc2c(c1)OCCO2 | 171%
76 | N#CC1=C(N)Oc2cc(O)ccc2C1c1ccccc1 (centres undefined) | 85.2%
77 | CCN(CC)c1ccc2cc(C#N)c(=O)oc2c1 | 112%
78 | CCN(CC)c1ccc2cc(C(=O)NNC(=O)c3ccc(S(=O)(=O)N4CCCCC4)cc3)c(=O)oc2c1 | 108%
79 | Cc1csc2c(=O)sc(NC(=O)c3cccs3)nc12 | 104%
80 | CCOc1ccc(/C=C(\C(=O)O)c2ccc(S(=O)(=O)N3CCOCC3)s2)cc1OC | 58.6%
81 | CSc1nc(=S)c2[nH]c(=S)[nH]c2[nH]1 | 52.2%
82 | C/C(=N/NC(=O)c1ccncc1)c1cc2ccc(O)cc2oc1=O | 71.5%
83 | COc1ccc(OC)c(N=c2oc3cc(O)ccc3cc2C(N)=O)c1 | 129%
84 | CN1/C(=C\C=C(/C#N)C(=O)Nc2ccccc2F)C(C)(C)c2ccccc21 | 63.2%
85 | CCCOc1ccccc1C1C(C(=O)OC)=CN(C(C)C)C=C1C(=O)OC | 72.9%
86 | CN1CCc2nc(NC(=O)COc3ccc(C#N)cc3)sc2C1 | 92.5%
87 | COc1cc(/C=C(\C#N)c2nc3ccccc3[nH]2)cc(Br)c1OCc1ccc(F)cc1 | 117%
88 | CCOCCCNC(=S)NCCNc1nc2ccc(C)cc2cc1C#N | 115%

Row | SMILES | inhibition
89 | CCOC(=O)C1=C(C)NC2=C(C(=O)C(C(=O)OCC)C(c3ccccc3OC)C2)C1c1ccccn1 (centres undefined) | 71.8%
90 | CN1C(=O)N(C)c2ccc(C=O)c3cccc1c23 | 70.6%
91 | Fc1ccccc1-c1ccc(/C=N/Nc2nc3ccccc3[nH]2)o1 | 63.1%
92 | Nc1c(C(=O)OCC2CCCO2)c2nc3ccccc3nc2n1C1CCCCC1 (centres undefined) | 73.3%
93 | N#CC1(C#N)COC23CCCCC2C1(C#N)C(=N)O3 (centres undefined) | 126%
94 | c1ccc(N2N=C(c3cccs3)CC2c2ccco2)cc1 (centres undefined) | 60.3%
95 | CCCn1nc(NC(=O)c2cccs2)c2cc3ccc(C)cc3nc21 | 50.6%
96 | COc1ccc(C2C(C#N)=C(N)N(Nc3ccccc3)C3=C2C(=O)CC(C)(C)C3)cc1C (centres undefined) | 120%
97 | CCN(CC)Cc1c(O)c(Cl)cc2c(C)cc(=O)oc12 | 156%
98 | Nc1c(C(=O)NCc2ccc3c(c2)OCO3)c2nc3ccccc3nc2n1CCCN1CCOCC1 | 73.6%
99 | CCCn1nc(NC(=O)c2ccccn2)c2cc3cc(C)ccc3nc21 | 80.9%
100 | COCCn1c(C)cc(C(=O)CSc2nc(C)cc(C)c2C#N)c1C | 96.4%
101 | Cc1ccc2cc(C#N)c(N3CCCC3)nc2c1C | 67.3%
102 | COc1ccc(C2CC(=O)N3CN(c4ccccc4F)CSC3=C2C#N)cc1OC (centres undefined) | 112%
103 | CCCNC(=O)Cn1sc2nc(C)cc(C)c2c1=O | 52.2%
104 | Nc1n[nH]c2cc(=O)n(-c3cccc(C(F)(F)F)c3)nc12 | 100%
105 | Cc1ccc2cc(C#N)c(NCCNC(=O)C3CCC3)nc2c1C | 105%
106 | COCCOC(=O)c1cc(C(=O)c2cc(F)ccc2O)coc1=N | 108%
107 | O=c1oc2c(CN3CCOCC3)c(O)c(Cl)cc2c2c1CCC2 | 174%
108 | N#C/C(=C\c1c(N2CCC(C(N)=O)CC2)nc2ccccn2c1=O)C(=O)NCc1ccco1 | 166%
109 | CC(C)Cn1c(-c2cccs2)nc2nc3ccccc3nc21 | 129%
